Test results: the supplement of paper PMC11741623
This is one part of the list. Interaction screen of human proteins with wild-type SARS-CoV-2 proteins by split-DHFR complementation in yeast, 1 µg/mL methotrexate. Value = fitness of the pair (three or more lineages) minus that of the viral protein without a human partner, on a scale set by negative (0) and fused positive (1) controls, mean of up to three cultures; higher = more likely to interact. Active = false discovery rate below 0.05 (one-sided t-test) in at least one culture. Nearly all pairs are not hits, and differences among them are mostly noise (correlation between cultures about 0.3); most hits were seen in one culture only. Human sequences are the Swiss-Prot entries looked up by gene name; the clone may be another isoform. NSP2 values were corrected by the authors for a growth advantage. Listed are human proteins with a hit and a random twelfth of the others.

Columns and labels:
Assay in all cases: yeast fitness gain over the viral ORF with no human partner (scaled fitness); higher = more likely to interact
SARS-CoV-2 E = target: SARS-CoV-2 E
Experimental: (§1)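 Split mouse DHFR complementation in pooled diploid yeast: human ORFeome clones carry one fragment and viral ORFs the other; barcoded lineages compete in 1 µg/mL methotrexate and fitness is read by barcode sequencing in up to three cultures.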

SARS-CoV-2 M = target: SARS-CoV-2 M
Experimental: as §1

SARS-CoV-2 N = target: SARS-CoV-2 N
Experimental: as §1

SARS-CoV-2 NSP1 = target: SARS-CoV-2 NSP1
Experimental: as §1

SARS-CoV-2 NSP10 = target: SARS-CoV-2 NSP10
Experimental: as §1

SARS-CoV-2 NSP12 = target: SARS-CoV-2 NSP12
Experimental: as §1

SARS-CoV-2 NSP13 = target: SARS-CoV-2 NSP13
Experimental: as §1

SARS-CoV-2 NSP15 = target: SARS-CoV-2 NSP15
Experimental: as §1

SARS-CoV-2 NSP16 = target: SARS-CoV-2 NSP16
Experimental: as §1

SARS-CoV-2 NSP2 = target: SARS-CoV-2 NSP2
Experimental: as §1

SARS-CoV-2 NSP4 = target: SARS-CoV-2 NSP4
Experimental: as §1

SARS-CoV-2 NSP5 = target: SARS-CoV-2 NSP5
Experimental: as §1

SARS-CoV-2 NSP6 = target: SARS-CoV-2 NSP6
Experimental: as §1

SARS-CoV-2 NSP7 = target: SARS-CoV-2 NSP7
Experimental: as §1

SARS-CoV-2 NSP8 = target: SARS-CoV-2 NSP8
Experimental: as §1

SARS-CoV-2 NSP9 = target: SARS-CoV-2 NSP9
Experimental: as §1

SARS-CoV-2 ORF10 = target: SARS-CoV-2 ORF10
Experimental: as §1

SARS-CoV-2 ORF3A = target: SARS-CoV-2 ORF3A
Experimental: as §1

SARS-CoV-2 ORF3B = target: SARS-CoV-2 ORF3B
Experimental: as §1

SARS-CoV-2 ORF6 = target: SARS-CoV-2 ORF6
Experimental: as §1

SARS-CoV-2 ORF7A = target: SARS-CoV-2 ORF7A
Experimental: as §1

SARS-CoV-2 ORF7B = target: SARS-CoV-2 ORF7B
Experimental: as §1

SARS-CoV-2 ORF8 = target: SARS-CoV-2 ORF8
Experimental: as §1

SARS-CoV-2 ORF9B = target: SARS-CoV-2 ORF9B
Experimental: as §1

[1] = target: SARS-CoV-2 ORF9Bwu (the 73-codon ORF)
Experimental: as §1

SARS-CoV-2 S = target: SARS-CoV-2 S
Experimental: as §1

SARS-CoV-2 NSP14 = target: SARS-CoV-2 NSP14
Experimental: as §1

Measured: yeast fitness gain

B1: AGT, P01019 (protein)
chain: MAPAGVSLRATILCLLAWAGLAAGDRVYIHPFHLVIHNESTCEQLAKANAGKPKDPTFIPAPIQAKTSPVDEKALQDQLVLVAAKLDTEDKLRAAMVGMLANFLGFRIYGMHSELWGVVHGATVLSPTAVFGTLASLYLGALDHTADRLQAILGVPWKDKNCTSRLDAHKVLSALQAVQGLLVAQGRADSQAQLLLSTVVGVFTAPGLHLKQPFVQGLALYTPVVLPRSLDFTELDVAAEKIDRFMQAVTGWKTGCSLMGASVDSTLAFNTYVHFQGKMKGFSLLAEPQEFWVDNSTSVSVPMLSGMGTFQHWSDIQDNFSVTQVPFTESACLLLIQPHYASDLDKVEGLTFQQNSLNWMKKLSPRTIHLTMPQLVLQGSYDLQDLLAQAELPAILHTELNLQKLSNDRIRVGEVLNSIFFELEADEREPTESTQQLNKPEVLEVTLNRPFLFAVYDQSATALHFLGRVANPLSTA
inactive: SARS-CoV-2 E -0.00688 | SARS-CoV-2 M 0.00242 | SARS-CoV-2 N 0.0598 | SARS-CoV-2 NSP1 = -0.104 | SARS-CoV-2 NSP10 = -0.0479 | SARS-CoV-2 NSP12 = -0.0154 | SARS-CoV-2 NSP13 = 0.0267 | SARS-CoV-2 NSP15 = 0.0556 | SARS-CoV-2 NSP16 = -0.0861 | SARS-CoV-2 NSP2 = -0.217 | SARS-CoV-2 NSP4 = -0.0352 | SARS-CoV-2 NSP5 = 0.00482 | SARS-CoV-2 NSP6 = 0.0154 | SARS-CoV-2 NSP7 = -0.138 | SARS-CoV-2 NSP8 = -0.101 | SARS-CoV-2 NSP9 = -0.419 | SARS-CoV-2 ORF10 = -0.00936 | SARS-CoV-2 ORF3A 0.0571 | SARS-CoV-2 ORF3B -0.0746 | SARS-CoV-2 ORF6 = -0.00087 | SARS-CoV-2 ORF7A -0.138 | SARS-CoV-2 ORF7B -0.0125 | SARS-CoV-2 ORF8 = -0.000923 | SARS-CoV-2 ORF9B -0.0255 | [1] -0.0223 | SARS-CoV-2 S -0.0231

B2: A4GNT, Q9UNA3 (protein)
chain: MRKELQLSLSVTLLLVCGFLYQFTLKSSCLFCLPSFKSHQGLEALLSHRRGIVFLETSERMEPPHLVSCSVESAAKIYPEWPVVFFMKGLTDSTPMPSNSTYPAFSFLSAIDNVFLFPLDMKRLLEDTPLFSWYNQINASAERNWLHISSDASRLAIIWKYGGIYMDTDVISIRPIPEENFLAAQASRYSSNGIFGFLPHHPFLWECMENFVEHYNSAIWGNQGPELMTRMLRVWCKLEDFQEVSDLRCLNISFLHPQRFYPISYREWRRYYEVWDTEPSFNVSYALHLWNHMNQEGRAVIRGSNTLVENLYRKHCPRTYRDLIKGPEGSVTGELGPGNK
inactive: SARS-CoV-2 E -0.0235 | SARS-CoV-2 M 0.0502 | SARS-CoV-2 N 0.0441 | SARS-CoV-2 NSP1 = 0.00443 | SARS-CoV-2 NSP10 = 0.036 | SARS-CoV-2 NSP12 = -0.0551 | SARS-CoV-2 NSP13 = -0.00901 | SARS-CoV-2 NSP14 = -0.0763 | SARS-CoV-2 NSP15 = 0.0166 | SARS-CoV-2 NSP16 = 0.0376 | SARS-CoV-2 NSP2 = -0.104 | SARS-CoV-2 NSP5 = 0.0049 | SARS-CoV-2 NSP6 = -0.0553 | SARS-CoV-2 NSP7 = -0.0554 | SARS-CoV-2 NSP8 = -0.0745 | SARS-CoV-2 NSP9 = 0.0184 | SARS-CoV-2 ORF10 = -0.0291 | SARS-CoV-2 ORF3B 0.0419 | SARS-CoV-2 ORF6 = 0.0178 | SARS-CoV-2 ORF7A -0.0668 | SARS-CoV-2 ORF7B -0.0414 | SARS-CoV-2 ORF8 = -0.0898 | SARS-CoV-2 ORF9B -0.0239 | [1] -0.0388 | SARS-CoV-2 S -0.0248

B3: SEC16B, Q96JE7 (protein)
chain: MELWAPQRLPQTRGKATAPSKDPDRGFRRDGHHRPVPHSWHNGERFHQWQDNRGSPQPQQEPRADHQQQPHYASRPGDWHQPVSGVDYYEGGYRNQLYSRPGYENSYQSYQSPTMREEYAYGSYYYHGHPQWLQEERVPRQRSPYIWHEDYREQKYLDEHHYENQHSPFGTNSETHFQSNSRNPCKDSPASNSGQEWPGELFPGSLLAEAQKNKPSLASESNLLQQRESGLSSSSYELSQYIRDAPERDDPPASAAWSPVQADVSSAGPKAPMKFYIPHVPVSFGPGGQLVHVGPSSPTDGQAALVELHSMEVILNDSEEQEEMRSFSGPLIREDVHKVDIMTFCQQKAAQSCKSETLGSRDSALLWQLLVLLCRQNGSMVGSDIAELLMQDCKKLEKYKRQPPVANLINLTDEDWPVLSSGTPNLLTGEIPPSVETPAQIVEKFTRLLYYGRKKEALEWAMKNHLWGHALFLSSKMDPQTYSWVMSGFTSTLALNDPLQTLFQLMSGRIPQAATCCGEKQWGDWRPHLAVILSNQAGDPELYQRAIVAIGDTLAGKGLVEAAHFCYLMAHVPFGHYTVKTDHLVLLGSSHSQEFLKFATTEAIQRTEIFEYCQMLGRPKSFIPSFQVYKLLYASRLADYGLVSQALHYCEAIGAAVLSQGESSHPVLLVELIKLAEKLKLSDPLVLERRSGDRDLEPDWLAQLRRQLEQKVAGDIGDPHPTRSDISGAGGTTTENTFYQDFSGCQGYSEAPGYRSALWLTPEQTCLLQPSPQQPFPLQPGSYPAGGGAGQTGTPRPFYSVPETHLPGTGSSVAVTEATGGTVWEEMLQTHLGPGENTVSQETSQPPDGQEVISKPQTPLAARPRSISESSASSAKEDEKESSDEADKNSPRNTAQRGKLGDGKEHTKSSGFGWFSWFRSKPTKNASPAGDEDSSDSPDSEETPRASSPHQAGLGLSLTPSPESPPLPDVSAFSRGRGGGEGRGSASSGGAAAGAGVGGLSGPESVSFELCSNPGVLLPPPALKGAVPLYNPSQVPQLPTATSLNRPNRLAQRRYPTQPC
inactive: SARS-CoV-2 E -0.0275 | SARS-CoV-2 M -0.0301 | SARS-CoV-2 N 0.0894 | SARS-CoV-2 NSP1 = 0.0666 | SARS-CoV-2 NSP10 = 0.0282 | SARS-CoV-2 NSP12 = 0.0142 | SARS-CoV-2 NSP13 = -0.0384 | SARS-CoV-2 NSP14 = -0.117 | SARS-CoV-2 NSP15 = 0.0864 | SARS-CoV-2 NSP16 = 0.0521 | SARS-CoV-2 NSP2 = -0.0735 | SARS-CoV-2 NSP5 = 0.00322 | SARS-CoV-2 NSP6 = -0.0747 | SARS-CoV-2 NSP7 = 0.0036 | SARS-CoV-2 NSP8 = 0.0612 | SARS-CoV-2 NSP9 = -0.00543 | SARS-CoV-2 ORF10 = -0.034 | SARS-CoV-2 ORF3A 0.0692 | SARS-CoV-2 ORF3B -0.0506 | SARS-CoV-2 ORF6 = 0.017 | SARS-CoV-2 ORF7A 0.019 | SARS-CoV-2 ORF7B -0.00665 | SARS-CoV-2 ORF8 = -0.00223 | SARS-CoV-2 ORF9B -0.00592 | [1] 0.0658 | SARS-CoV-2 S 0.0404
